Measurements: publication PMC9911399, “Two distinct binding modes provide the RNA-binding protein RbFox with extraordinary sequence specificity”
Changes are numbered by the printed parent chain; changes in the protein carry UniProt numbers. This is one part of the list.

B1: GAAGUGC (DNA:RNA)
RNA: GGGAGACCGGAAUUCAGAUUGUCCGAAGUGCUUAAAUCCCGUCGUAGCCACCA
DNA 1: CAATCTGAATTCCGGTCTCCC
DNA 2: TGGTGGCTACGACGGGATT
B2: CAAAAUU (DNA:RNA)
RNA: B1 RNA with G25C, G28A, U29A, G30U, C31U
DNA 1: CAATCTGAATTCCGGTCTCCC
DNA 2: TGGTGGCTACGACGGGATT
B3: AUCCAUU (DNA:RNA)
RNA: GGGAGACCGGAAUUCAGAUUGUCCAUCCAUUUUAAAUCCCGUCGUAGCCACCA
DNA 1: CAATCTGAATTCCGGTCTCCC
DNA 2: TGGTGGCTACGACGGGATT
B4: ACCCAUA (DNA:RNA)
RNA: B3 RNA with U26C, U31A
DNA 1: CAATCTGAATTCCGGTCTCCC
DNA 2: TGGTGGCTACGACGGGATT
B5: CAUUACA (DNA:RNA)
RNA: B3 RNA with A25C, U26A, C27U, C28U, U30C, U31A
DNA 1: CAATCTGAATTCCGGTCTCCC
DNA 2: TGGTGGCTACGACGGGATT
B6: CAAUCGG (DNA:RNA)
RNA: B1 RNA with G25C, G28U, U29C, C31G
DNA 1: CAATCTGAATTCCGGTCTCCC
DNA 2: TGGTGGCTACGACGGGATT
B7: CUGCUGG (DNA:RNA)
RNA: B3 RNA with A25C, C27G, A29U, U30G, U31G
DNA 1: CAATCTGAATTCCGGTCTCCC
DNA 2: TGGTGGCTACGACGGGATT
B8: UUUCUUG (DNA:RNA)
RNA: B3 RNA with A25U, C27U, A29U, U31G
DNA 1: CAATCTGAATTCCGGTCTCCC
DNA 2: TGGTGGCTACGACGGGATT
B9: GGGCACG (DNA:RNA)
RNA: B3 RNA with A25G, U26G, C27G, U30C, U31G
DNA 1: CAATCTGAATTCCGGTCTCCC
DNA 2: TGGTGGCTACGACGGGATT

Target: T1, RBFOX1 RRM RbFoxmut (Fox-RRM*) (Homo sapiens, UniProt Q9NWB1 109-208, R118D;E147R;N151S;E152T)
T1 sequence: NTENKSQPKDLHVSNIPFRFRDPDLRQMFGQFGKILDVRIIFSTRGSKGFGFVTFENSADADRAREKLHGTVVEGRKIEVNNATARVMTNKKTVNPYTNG
Assay: EMSA; HiTS-Eq, 1 nM pool, 10 min; buffer printed only for the single-RNA assays: 10 mM Tris pH 7.5, 150 mM NaCl, 3.4 mM EDTA, 0.001% NP-40, 30 C
Conditions: tags: His6 N-terminal (pET28a); label: 5' 32P
Procedure, shortened: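 Relative association constants, normalised to the cognate motif, were derived by comparing read counts of each RNA species with those of the control reaction. The RNA sequenced was the free fraction, separated by 8% native PAGE after a 10 min equilibration in 50 µL of 1 nM 5′-radiolabelled RNA (7 randomized nucleotides) with increasing concentrations of purified wild-type or mutant RbFox RRM.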

**Q.** B1 was tested. Which binding signal did it give?
**A.** 0.096 KA relative to UGCAUGU

**Q.** B2 was tested. Which binding signal did it give?
**A.** 0.0788 KA relative to UGCAUGU

**Q.** Which binding signal does the source give for B3 here?
**A.** 0.0835 KA relative to UGCAUGU

**Q.** How did the binding signal turn out when B4 was run?
**A.** 0.0832 KA relative to UGCAUGU

**Q.** B5 was tested. Which binding signal did it give?
**A.** 0.158 KA relative to UGCAUGU

**Q.** B6 was tested. Which binding signal did it give?
**A.** 0.0571 KA relative to UGCAUGU

**Q.** How did the binding signal turn out when B7 was run?
**A.** 0.114 KA relative to UGCAUGU

**Q.** B8 was tested. Which binding signal did it give?
**A.** 0.0889 KA relative to UGCAUGU

**Q.** B9 was tested. Which binding signal did it give?
**A.** 0.249 KA relative to UGCAUGU
